Source: PubChem BioAssay (NCATS)
This list was built around the results that the source calls inconclusive (neither active nor inactive); the mix of calls is not that of the screen. For some assays here: Potencies beside an inconclusive call are fits to weak or partial responses and may not hold up. The source made the active and inactive calls. Unless noted, the call rests on the fitted dose curve; in most records, active means well fitted curve in the direction sought with a large enough effect; inconclusive means small, poorly fitted or top-dose-only effect, or another doubt; inactive means no such curve, though single readings can be large; an effect the other way counts as inactive or inconclusive.

Key:
[1] = Cytometric Cell-Based qHTS for Inhibitors of the mTORC1 Signaling Pathway in MEF (Tsc2-/-, p53-/-) Cells (AID 2660)
In short: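 Percent of cells positive for normalized phospho-S6 staining is reported, with the cutoff set from rapamycin (7.5 nM) versus DMSO wells. Tsc2-/-, p53-/- MEFs received compound for 24 hrs.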

[2] = High Content Imaging Cell-Based qHTS for Inhibitors of the mTORC1 Signaling Pathway in MEF (Tsc2-/-, p53-/-) Cells (AID 2666);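 further: percent of cells scored positive for phospho-rpS6 Ser235/236 immunostaining by imaging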
In short: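 MEF Tsc2-/- p53-/- (empty vector), DMEM/10% FBS; cpd 24 h 37 °C; PFA fix, Alexa-488 p-rpS6 S235/236 Ab, Hoechst; imaged; rapamycin-defined inhibition; % positive cells/well.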

[3] = Validation screen for small molecules that induce genotoxicity in human embryonic kidney (HEK293T) cells expressing luciferase-tagged ELG1 (AID 493106); details: luminescence
In short: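 Cells were dispensed at 2,000 per well, then 23 nL compound or DMSO was pinned in. After 16 hr at 37 °C and 5% CO2, ONE-Glo reagent was added. Luciferase activity was measured following 30 min at room temperature.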

[4] = Quantitative High-Throughput drug screen in 47 multiple myeloma cell lines against the NCATS MIPE library collection: H1112_PLB cell viability assay (AID 1918967; further: nearly all actives have a fitted effect of over 30% in size)
In short: (§1)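 We plated 500 myeloma cells per well, pinned in MIPE 4.0 compounds, and incubated for 48 hours at 37C. ATP was then quantified with CellTiter-Glo, with DMSO and media-only wells defining 100% and 0%.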

[5] = Quantitative High-Throughput drug screen in 47 multiple myeloma cell lines against the NCATS MIPE library collection: Karpas25_ECACC cell viability assay (AID 1918968; further: nearly all actives have a fitted effect of over 35% in size)
In short: as §1

[6] = Quantitative High-Throughput drug screen in 47 multiple myeloma cell lines against the NCATS MIPE library collection: KMS27_JCRB cell viability assay (AID 1918970); details: KMS27 myeloma cells, CellTiter-Glo ATP viability, 48 h; viability (% of DMSO): at 45.8 µM (top of the series); further: nearly all actives have a fitted effect of over 30% in size
In short: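 ATP-based viability (CellTiter-Glo luminescence) is measured in cells treated 48 h with approved and investigational drugs at 37 °C. Controls are DMSO-only wells for full viability and media-only wells for none.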

[7] = Quantitative High-Throughput drug screen in 47 multiple myeloma cell lines against the NCATS MIPE library collection: KMS20_JCRB cell viability assay (AID 1918973); details: CellTiter-Glo ATP, 48 h; viability (% of DMSO): at 45.8 µM (top of the series); further: nearly all actives have a fitted effect of over 45% in size
In short: as §1

[8] = Quantitative High-Throughput drug screen in 47 multiple myeloma cell lines against the NCATS MIPE library collection: KMS21BM_JCRB cell viability assay (AID 1918974); details: ATP luminescence, 48 h; viability: at 45.8 µM (top of the series)
In short: as §1

[9] = Quantitative High-Throughput drug screen in 47 multiple myeloma cell lines against the NCATS MIPE library collection: MMM1_PLB cell viability assay (AID 1918976); further: nearly all actives have a fitted effect of over 35% in size
In short: (§2)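 Cells were exposed to library compounds for 48 hours, after which ATP was measured by CellTiter-Glo. Signal was taken as median relative luminescence units.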

[10] = Quantitative High-Throughput drug screen in 47 multiple myeloma cell lines against the NCATS MIPE library collection: OCIMY1_PLB cell viability assay (AID 1918979); further: nearly all actives have a fitted effect of over 35% in size
In short: as §2

[11] = Quantitative High-Throughput drug screen in 47 multiple myeloma cell lines against the NCATS MIPE library collection: LP1_DSMZ cell viability assay (AID 1918982); further: nearly all actives have a fitted effect of over 35% in size
In short: as §2

[12] = Quantitative High-Throughput drug screen in 47 multiple myeloma cell lines against the NCATS MIPE library collection: KMS34_JCRB cell viability assay (AID 1918985); further: nearly all actives have a fitted effect of over 40% in size
In short: as §2

[13] = Quantitative High-Throughput drug screen in 47 multiple myeloma cell lines against the NCATS MIPE library collection: OCIMY7_PLB cell viability assay (AID 1918987); details: OCI-MY7 myeloma viability, CellTiter-Glo ATP, 48 h; viability (% of DMSO): at 45.8 µM (top of the series); further: nearly all actives have a fitted effect of over 65% in size
In short: as §2

[14] = Quantitative High-Throughput drug screen in 47 multiple myeloma cell lines against the NCATS MIPE library collection: SKMM1_PLB cell viability assay (AID 1919863); details: SKMM1 myeloma viability, CellTiter-Glo ATP, 48 h; viability: stronger effect = lower value; further: nearly all actives have a fitted effect of over 35% in size
In short: as §2

[15] = Quantitative High-Throughput drug screen in 47 multiple myeloma cell lines against the NCATS MIPE library collection: VP6_DJ cell viability assay (AID 1919867); details: ATP luminescence, 48 h; viability (% of DMSO): at 45.8 µM (top of the series); further: nearly all actives have a fitted effect of over 40% in size
In short: as §2

[16] = Quantitative High-Throughput drug screen in 47 multiple myeloma cell lines against the NCATS MIPE library collection: PE2_PLB cell viability assay (AID 1919869); details: PE2_PLB myeloma cells viability, ATP luminescence, 48 h; series mostly up to 45.8 µM; further: nearly all actives have a fitted effect of over 35% in size
In short: as §2

[17] = Quantitative High-Throughput drug screen in 47 multiple myeloma cell lines against the NCATS MIPE library collection: PCM6_Riken cell viability assay (AID 1919870); further: nearly all actives have a fitted effect of over 30% in size
In short: as §2

[18] = Quantitative High-Throughput drug screen in 47 multiple myeloma cell lines against the NCATS MIPE library collection: RPMI8226_ATCC cell viability assay (AID 1919871); further: nearly all actives have a fitted effect of over 30% in size
In short: as §2

[19] = Quantitative High-Throughput drug screen in 47 multiple myeloma cell lines against the NCATS MIPE library collection: OPM2_DSMZ cell viability assay (AID 1919872); further: nearly all actives have a fitted effect of over 30% in size
In short: as §1

[20] = qHTS for identification of novel therapeutic agents for treatment of microphthalmiaassociated transcription factor (MiT) renal cell carcinoma (RCC) (AID 1963991; calls by dose curve); details: TFE3-RCC UOK109 viability, CellTiter-Glo, 48 h; active = Z-AUC below -0.8 in all three lines
In short: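 Viability of three TFE3-fusion renal carcinoma lines measured by CellTiter-Glo after 48 h treatment with each of 1912 compounds at 11 concentrations. Responses scaled between DMSO (100%) and empty wells (0%) before curve fitting.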

Measured: Potency
Potency means the concentration at half of the fitted maximal effect; tags describe the fitted curve by direction and shape.

Nc1nc(N)c(N=O)c(OCC2CCCCC2)n1
active: [1] 14.7 µM | [2] 14.7 µM | [5] 5.9 µM | [6] 6.62 µM | [7] 4.69 µM | [12] 11.8 µM | [13] 1.48 µM | [15] 2.96 µM | [16] 9.35 µM | [17] 5.26 µM
inconclusive: [3] 18.3 µM [activator, single point] | [4] 14.8 µM [cytotoxic, partial curve] | [8] 2.64 µM [cytotoxic, full curve, poor fit] | [9] 13.2 µM [cytotoxic, partial curve, poor fit] | [10] 14.8 µM [cytotoxic, partial curve] | [11] 5.26 µM [cytotoxic, full curve] | [14] 16.6 µM [cytotoxic, partial curve, poor fit] | [18] 14.8 µM [cytotoxic, partial curve] | [19] 23.5 µM [cytotoxic, partial curve] | [20] 16.6 µM [falling, partial curve]
